Data: PubChem BioAssay AID651820 (National Center for Advancing Translational Sciences (NCATS), 2012)
Out of some 340,000 compounds screened, about 12,000 (3.5%) were called active. The inconclusive results got no clear call from the source; some entries with a clear call stand among them for comparison. Calls come from the whole dose curve; as a rule, active = well fitted inhibition curve with a large enough effect; inconclusive = small, poorly fitted or top-dose-only effect, or another doubt; inactive = no such curve, though single readings can be large or run the other way. No potency is given beside an inconclusive call; the fits are too rough.
% is set by controls: 0 for no effect and ±100 for the full control effect; potency is the fitted concentration of half-maximal effect; tags give direction and shape of the fitted curve.

Assay: qHTS Assay for Inhibitors of Hepatitis C Virus (HCV)
Conditions: Huh7.5.1 HCVcc-Cre (HCVcc is cell-culture hepatitis C virus) infection, luciferase reporter, 44 h; activity change, negative = inhibition: at 41.8 µM (top of the series) unless noted
Procedure, shortened: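 After 44 h co-culture of compound, cells and HCVcc-Cre (~0.5 moi), substrate is added for 15 min at room temperature and luciferase measured over 15 sec. Cells were seeded at 1,000/well and pre-cultured 4 h.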
With O=C(C1=C[C@H](c2ccc(C(F)(F)F)cc2)C[C@H](OCc2ccc(CO)cc2)O1)N1CCN(Cc2ccccc2)CC1 the Potency was inconclusive [inhibitor, single point].
With Cc1cc(C(=O)NCCCn2ccnc2)sc1-c1ccccc1 the Potency was inconclusive [inhibitor, partial curve].
In the case of CCn1cc(C(=O)O)c(=O)c2cc(F)c(N3CCN(C(=S)NC(=O)c4ccc(Br)cc4)CC3)cc21, the Potency was inconclusive [inhibitor, single point].
With Cc1cc(N/N=C/c2ccc(N(C)C)cc2)c2ccccc2n1 the Potency was inconclusive [inhibitor, single point].
For CCCS(=O)(=O)NCCc1cc2c(OC)ccc(OC)c2[nH]c1=O, the “activity change, negative = inhibition” value was inactive: -4.2%.
For O=C(Nc1nc(-c2ccc(-c3ccccc3)cc2)cs1)C1CCCO1 (stereo not given), the Potency was inconclusive [inhibitor, single point].
In the case of CCCCn1c(N)c(N(CCOC)C(=O)c2cc3c(s2)CCC(C)C3)c(=O)[nH]c1=O (stereo not given), the Potency was inconclusive [inhibitor, single point].
With CC(C)(C)NC(=O)CSc1ncnc2c1nnn2Cc1ccccc1Cl the Potency was inconclusive [inhibitor, single point].
In the case of Cn1nccc1NC(=O)Nc1cccc(Cl)c1, the “activity change, negative = inhibition” value was inactive: 4.67%.
With CCCCn1c(-c2cccc(C)c2)nc2cc3[nH]c(=O)c(C(C)C)nc3cc21 the Potency was inconclusive [inhibitor, partial curve].
In the case of CC1Cc2ccccc2N1C(=O)c1cc2sccc2n1Cc1ccc(F)cc1 (stereo not given), the “activity change, negative = inhibition” value was inactive: -25.6%.
For C=CCNC(=O)c1ccc2nc(-c3ccccc3)c(-c3ccccc3)nc2c1, the Potency was inconclusive [inhibitor, single point].
For O=C(NCCNc1ccnc2cc(Cl)ccc12)c1ccccc1F, the Potency was active: 12.6 µM.
In the case of Cc1cccc(-n2c(C)cc(/C=N\NC(=O)c3ccco3)c2C)c1, the Potency was inconclusive [inhibitor, full curve, poor fit].
In the case of O=C(/C(=C/O)N=Nc1ccccc1)c1ccc(Cl)cc1, the Potency was inconclusive [inhibitor, single point].
In the case of CCOC(=O)c1ccc(NC(=S)N2CCN(CCN=CC3=C(O)CC(C)(C)CC3=O)CC2)cc1, the Potency was inconclusive [inhibitor, single point].
With CC(=O)Nc1ccc(S(=O)(=O)Nc2nnc(C(C)(C)C)s2)cc1 the “activity change, negative = inhibition” value was inactive: -6.93%.
In the case of CCc1ccc(C(=O)NNc2ccc(C)c(Cl)c2)cc1, the “activity change, negative = inhibition” value was inactive: 1.06%.
In the case of Cc1nnc2c(-c3ccccc3)nc3ccccc3n12, the Potency was inconclusive [inhibitor, single point].
For COc1ccc(NS(=O)(=O)c2cc(NC(=O)CCc3ccccc3)ccc2N2CCOCC2)cc1, the Potency was inconclusive [inhibitor, partial curve].
In the case of CC(=O)c1c(C)[nH]c(C(=O)NCc2ccccc2Cl)c1C, the Potency was active: 12.6 µM.
In the case of O=C1CSC(=S)N1/N=C/C=C/c1ccccc1, the “activity change, negative = inhibition” value was inactive: -10.3%.
For CC1(C)Cc2c(sc3[nH]c(=S)n(Cc4ccco4)c(=O)c23)CO1, the “activity change, negative = inhibition” value was inactive: 12.5%.
With O=C(Nc1cc(Cl)cc2c1-c1ccc(Cl)cc1C2O)C(Cl)Cl (stereo not given) the Potency was active: 11.2 µM.
For Cc1ccc(OCC(=O)N2CCN(c3nnc(-c4ccc(C)cc4)c4ccccc34)CC2)cc1, the Potency was active: 8.91 µM.
With CC(=O)NCCc1nc2cc(NC(=O)c3ccccc3)ccc2n1C the “activity change, negative = inhibition” value was inactive: 10.2%.
In the case of Cc1cc(C)cc(-n2nnn(C3C/C(=N/NC(N)=S)C4OCC3O4)c2=S)c1 (stereo not given), the Potency was inconclusive [inhibitor, single point].
For CS(=O)(=O)N(CC(O)CON=C1c2ccccc2-c2ccccc21)c1ccc(F)cc1 (stereo not given), the Potency was inconclusive [inhibitor, partial curve, poor fit].
With CC(=O)Nc1ccc(S(=O)(=O)NCc2ccc(C(=O)NC(C)c3ccccc3)cc2)cc1 (stereo not given) the Potency was inconclusive [inhibitor, single point].
In the case of COc1ccc(C(=O)Nc2ccc(NS(=O)(=O)c3ccccc3)cc2)cc1OC, the Potency was inconclusive [inhibitor, partial curve].
With Cc1ccccc1CN1CCNC(=O)C1CC(=O)NC1CCCCCCC1 (stereo not given) the “activity change, negative = inhibition” value was inactive: 4.09%.
For CCOC(=O)C1(S(=O)(=O)c2ccc(Cl)cc2)CCN(Cc2ccc(Cl)cc2)CC1, the Potency was inconclusive [inhibitor, single point].
In the case of Cc1ccc(S(=O)(=O)N(CCO)c2cc3c(s2)CCCC3)cc1, the Potency was inconclusive [inhibitor, single point].
In the case of CCn1c(=O)n(CC)c2cc(N3CCCC3)c(NC(=O)c3ccc(OC)c(Br)c3)cc21, the Potency was inconclusive [inhibitor, partial curve, poor fit].
With COCCCNc1oc(-c2ccccc2F)nc1C#N the Potency was inconclusive [inhibitor, single point].
In the case of CC(C)c1ccccc1NC(=O)Cn1c(-c2ccccc2Cl)nc2ccccc21, the Potency was active: 2.51 µM.
In the case of Cc1cccn2c(=O)c3cc(S(=O)(=O)c4ccccc4)c(=N)n(Cc4ccc(F)cc4)c3nc12, the Potency was inconclusive [inhibitor, single point].
In the case of COC(=O)c1cc(OC)c(OC)cc1NC(=O)c1ccc(Br)o1, the Potency was inconclusive [inhibitor, partial curve].
With CN(C)C=Nc1c(C(=O)c2ccccc2)sc2nccc(N(C)C)c12 the Potency was inconclusive [inhibitor, partial curve, poor fit].
In the case of CCn1c(CSc2nc(C)cc(C)n2)nnc1SCC(=O)N1CCCc2ccccc21, the Potency was inconclusive [inhibitor, single point].
With Cn1nc(-c2ccc(C(=O)N3CCN(Cc4ccccc4)CC3)cc2)c2ccccc2c1=O the Potency was inconclusive [inhibitor, single point].
With O=C(C1CCN(Cc2ccccc2O)CC1)N1CCN(Cc2ccc3c(c2)OCO3)CC1 the Potency was inconclusive [inhibitor, partial curve, poor fit].
In the case of Cc1ccc(C(C[N+](=O)[O-])c2c(C)cc3ccccn23)cc1 (stereo not given), the Potency was inconclusive [inhibitor, single point].
For CCCCc1c(O)nc2ccccn2c1=O, the “activity change, negative = inhibition” value was inactive: -1.22%.
In the case of COc1cccc2sc(N(CCCN(C)C)C(=O)c3sc4ccccc4c3Cl)nc12, the Potency was inconclusive [inhibitor, single point].
For O=C(COc1ccc(Br)cc1CNC1CCCCC1)NCCc1ccccc1, the Potency was inconclusive [inhibitor, full curve].
With Cc1nn(Cc2ccc(Cl)cc2Cl)c(C)c1NC(=O)Cn1nc([N+](=O)[O-])c(Cl)c1C the Potency was inconclusive [inhibitor, partial curve, poor fit].
With O=C(/C=C/NNC(=O)c1cccc(Br)c1)c1ccccc1 the Potency was active: 10 µM.
With CC(C)Oc1ccc(C(=O)CCN2CCCCC2)cc1 the Potency was inconclusive [inhibitor, single point].
For O=C(COc1ccc(Br)cc1)N1CCN(Cc2c[nH]c3ccccc23)CC1, the “activity change, negative = inhibition” value was inactive: -11.6%.
For Cc1nc(C)c(C(=O)NCCC(c2ccccc2)c2ccccc2)o1, the Potency was active: 10 µM.
For CCN(c1ccccc1)S(=O)(=O)c1cc(NC(=O)Nc2ccccc2C#N)ccc1Cl, the Potency was inconclusive [inhibitor, single point].
For CCc1nn(-c2cc(Cl)ccc2OC)c2c1C(=O)CCC2, the Potency was active: 14.1 µM.
With O=C1NC(=Nc2ccc(O)cc2)S/C1=C/c1ccco1 the Potency was inconclusive [inhibitor, single point].
In the case of COc1ccccc1CN(C)CC(=O)Nc1ccc(Cl)cc1C(F)(F)F, the Potency was inconclusive [inhibitor, full curve, poor fit].
In the case of Cc1nc2cc(NCc3ccccc3O)ccc2n1Cc1ccccc1, the Potency was inconclusive [inhibitor, partial curve].
For CCCOc1ccc2c(c1)C(=NN=C(N)N)c1cc(OCCC)ccc1-2, the Potency was active: 11.2 µM.
In the case of CC[C@H]1CN2CCc3cc(OC)c(OC)cc3C2C[C@@H]1C[C@H]1NCCc2cc(OC)c(OC)cc21 (stereo not given in full), the Potency was active: 0.316 µM.
For O=[N+]([O-])c1ccc(N2CCN(S(=O)(=O)c3ccc(Cl)c(Cl)c3)CC2)cc1NCCN1CCOCC1, the “activity change, negative = inhibition” value was inactive: 21.4%.
With CCC(C)NC(=O)c1ccccc1NC(=O)CN(c1ccc(OC)cc1)S(C)(=O)=O (stereo not given) the “activity change, negative = inhibition” value was inactive: -0.145%.
For COc1cc(C(=O)N2CCN(C/C=C/c3ccccc3)CC2)cc(OC)c1C, the Potency was inconclusive [inhibitor, single point].
In the case of O=C(CCN1C(=O)/C(=C/c2cccs2)SC1=S)Nc1ccccn1, the “activity change, negative = inhibition” value was inactive: -10.7%.
For CNC[C@H]1Oc2ccc(NC(=O)Cc3cn(C)c4ccccc34)cc2CC(=O)N([C@@H](C)CO)C[C@H]1C, the “activity change, negative = inhibition” value was inactive: 8.52%.
In the case of Cc1ccc(Cl)c(OCC(=O)NCc2ccco2)c1, the “activity change, negative = inhibition” value was inactive: 5.37%.
With O=C1c2ccccc2C(Nc2ccc(S(=O)(=O)N3CCOCC3)cc2)N1c1ccccn1 (stereo not given) the Potency was inconclusive [inhibitor, single point].
With COc1ccccc1/C=C/C=N/NC(=O)CN1CCN(Cc2ccccc2)CC1 the Potency was inconclusive [inhibitor, partial curve].
In the case of COc1cccc(C(=O)/C=C/Nc2ccc(S(=O)(=O)Nc3cc(OC)nc(OC)n3)cc2)c1, the “activity change, negative = inhibition” value was inactive: 5.57%.
With COc1ccc(OC)c(NC(=O)C(C)Oc2ccc(Br)cc2)c1 (stereo not given) the Potency was active: 11.2 µM.
For O=C(CSc1nc(O)cc(=O)n1-c1ccccc1)Nc1ccccn1, the “activity change, negative = inhibition” value was inactive: 19.5%.
With CCNc1nc(N)c(C(=O)c2ccc(Cl)s2)s1 the Potency was inconclusive [inhibitor, single point].
